This assay has as its target MOR N127C (Homo sapiens (Human), UniProt P35372, N129C). In words: biochemical.

One may read the Ki as a measure of affinity in units of concentration, obtained from inhibition or displacement. Read a high Ki as a looser hold on the target.

In the case of `C[C@H](CN1C(=O)C=CC1=O)NC(=O)NC[C@H](Cc1ccc(O)cc1)N(C)C` [DD 179, 1-((S)-2-(dimethylamino)-3-(4-hydroxyphenyl)propyl)-3-((R)-1-(2,5-dioxo-2,5-dihydro-1H-pyrrol-1-yl)propan-2-yl)urea], the Ki came to 290 nM.

Source of the values: US11484525B2 (priority 2015, dated 2022).
